# Measurements as given in PubChem BioAssay AID485294 (National Center for Advancing Translational Sciences (NCATS), 2010).
# In all, about 370,000 compounds went through this assay and about 150 (0.041%) were called active. Inconclusive results, whose numbers are uncertain, are shown with a selection of clear calls. Calls come from the whole dose curve; as a rule, active = well fitted inhibition curve with a large enough effect; inconclusive = small, poorly fitted or top-dose-only effect; inactive = flat fitted curve, though single readings scatter. Potencies of inconclusive entries are left out as doubtful fits.
# Molecular target: Beta-lactamase (Escherichia coli (strain K12)) (UniProt P00811)
# Test: qHTS Inhibitors of AmpC Beta-Lactamase (assay with detergent); note: nearly all actives have a fitted effect of over 25% in size;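 for activity change, negative = inhibition: 0% = no-compound wells and -100% = no-enzyme wells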
# Settings: AmpC hydrolysis of nitrocefin, absorbance 480 nm, 0.01% Triton; activity change, negative = inhibition: at 114 µM (top of the series)
# Outline: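 20 mM phosphate pH 7.0 + 0.01% (detergent screen) or 0.0001% Triton X-100; 5.3 nM AmpC reagent; cpd preinc 15 min RT; nitrocefin (800 uM stock) to start; A480 q20 s × 4 min; Activity was normalised to no-enzyme and no-compound control wells.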
# Potency is the fitted concentration of half-maximal effect; tags give direction and shape of the fitted curve.
# UniProt P00811, sequence (P00811 whole entry, looked up): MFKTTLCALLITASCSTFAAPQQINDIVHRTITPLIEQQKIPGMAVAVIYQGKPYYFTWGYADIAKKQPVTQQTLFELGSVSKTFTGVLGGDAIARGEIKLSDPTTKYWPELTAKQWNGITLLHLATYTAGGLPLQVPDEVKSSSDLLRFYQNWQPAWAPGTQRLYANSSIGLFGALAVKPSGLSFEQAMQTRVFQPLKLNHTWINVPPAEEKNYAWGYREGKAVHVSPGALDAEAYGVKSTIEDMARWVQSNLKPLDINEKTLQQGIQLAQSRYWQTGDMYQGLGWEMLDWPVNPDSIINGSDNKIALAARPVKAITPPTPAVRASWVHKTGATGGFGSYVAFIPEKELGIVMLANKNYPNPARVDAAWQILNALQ
SMILES,Potency,"activity change, negative = inhibition"
Cc1ccc(S(=O)(=O)N2CCOCC2)cc1NC(=O)COC(=O)c1ccc2c(c1)OCCO2,"inconclusive [inhibitor, partial curve, poor fit]",
Cc1cc(=O)[nH]c(N/N=C/c2ccccn2)n1,,inactive: -6.51%
O=c1oc2ccccc2n1Cn1c(=O)oc2ccccc21,"inconclusive [inhibitor, full curve, poor fit]",
Cc1ccc(NC2CCCN(C(=O)c3ccccn3)C2)cc1C (centres undefined),,inactive: -11.6%
CCN(CC(=O)Nc1ccccc1OC)CC(=O)Nc1ccccc1C(F)(F)F,"inconclusive [inhibitor, full curve, poor fit]",
O=C(CSc1nc2ccccc2[nH]1)Nc1ccc(F)cc1,"inconclusive [inhibitor, partial curve, poor fit]",
O=C(NCC1CCCO1)Nc1cccc(Cl)c1 (centres undefined),,inactive: 0.757%
CCOC(=O)c1oc2ccc(Br)cc2c1CSc1nnc(C)s1,"inconclusive [inhibitor, partial curve, poor fit]",
O=C(OCCN1CCOCC1)c1ccc(Cl)cc1Cl,"inconclusive [inhibitor, full curve, poor fit]",
CC1CCCCN1CCCNC(=O)c1ccc2c(=O)n(CCc3ccccc3)c(=O)[nH]c2c1 (centres undefined),"inconclusive [inhibitor, full curve, poor fit]",
CN(C)S(=O)(=O)c1cccc(NC(=O)c2ccc(OC(F)(F)F)cc2)c1,"inconclusive [inhibitor, full curve, poor fit]",
CC(C)CCN(Cc1ccco1)C(=O)c1cc2c(s1)-c1ccccc1OC2,,inactive: -11.2%
CCc1ccc2oc(C(=O)Nc3cccc(Cl)c3C)cc(=O)c2c1,,inactive: 1.1%
O=C(O)Cn1cnc2ccccc2c1=O,"inconclusive [inhibitor, partial curve]",
O=C(O)CCc1ccc(-c2ccccc2)n1NC(=O)c1sc2ccccc2c1Cl,,inactive: 3.6%
CCc1ccc(N2CC(C(=O)Nc3cccc(S(=O)(=O)N4CCCC4)c3)CC2=O)cc1 (centres undefined),"inconclusive [inhibitor, full curve, poor fit]",
O=C(OCc1nnc(-c2ccccc2)o1)c1cc(S(=O)(=O)N2CCOCC2)c(Cl)cc1Cl,"inconclusive [inhibitor, full curve, poor fit]",
Cc1ccc(C)c(CN2C(=O)C3(OCCCO3)c3ccccc32)c1,"inconclusive [inhibitor, single point]",
CCOCCCNC(=O)C1CCN(C(=O)c2cc3sccc3n2C)CC1,,inactive: 0.559%
